Data published in PubChem BioAssay AID686978 (National Center for Advancing Translational Sciences (NCATS), 2013).
The whole screen tested about 420,000 compounds, of which about 64,000 (15%) were called active. Inconclusive means that the source gave no clear call. Such entries were picked first, then a sample of the others. The call rests on the fitted dose curve; in most records, active means well fitted inhibition curve with a large enough effect; inconclusive means small, poorly fitted or top-dose-only effect; inactive means flat fitted curve, though single readings scatter. Potencies of inconclusive entries are left out as doubtful fits.

assay: qHTS for Inhibitors of human tyrosyl-DNA phosphodiesterase 1 (TDP1): qHTS in cells in absence of CPT; conditions: DT40 Tdp1-/- hTDP1 cells, no CPT, ATP luminescence, 48 h; activity change, negative = growth inhibition: at 46.2 µM (top of the series) unless noted; further: nearly all actives have a fitted effect of over 55% in size
In short: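 Cells were dispensed at 400 per well, compounds added by pin tool, plates incubated ≥48 hr at 37 °C, then CellTiter-Glo added for 30 min at room temperature before luminescence reading. Line: DT40 Tdp1-/- complemented with hTDP1; camptothecin omitted.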
On the % scale 0 is the no-effect control and ±100 the full control effect; potency means the concentration at half of the fitted maximal effect; tags describe the fitted curve by direction and shape.

SMILES | Potency | activity change, negative = growth inhibition
COc1ccccc1CNC(=O)Cn1c(=O)ccc2cc(S(=O)(=O)N3CCC(C)CC3)ccc21 | inconclusive [inhibitor, single point] | 
O=C(CSc1ccccn1)C12CC3CC(CC(C3)C1)C2 | inconclusive [inhibitor, single point] | 
CC(C)(C)NC[C@@H](O)COc1cccc2c1CCCC2=O |  | inactive: 0.418%
CC1(Oc2ccccc2)CCN(Cc2ccc(-c3ccccn3)cc2)C1 (stereo not drawn) | inconclusive [inhibitor, single point] | 
CCOC(=O)c1cc(C)sc1NC(=O)CSc1nccn1C | inconclusive [inhibitor, single point] | 
COC(=O)c1c(C)oc2c1cc(NS(=O)(=O)c1c(C)cc(C)cc1C)c1ccccc12 | active: 20.6 µM | 
CCOc1ccc(OCC)c(NC(=O)CC2Oc3ccc(C)cc3NC2=O)c1 (stereo not drawn) | inconclusive [inhibitor, partial curve] | 
COCCCN(CCC#N)C(=O)c1c(-c2c(Cl)cccc2Cl)noc1C |  | inactive: -3.35%
CCCC(NC(=O)CCl)c1ccccc1 (stereo not drawn) | active: 29.1 µM | 
CN(C)C(CNC(=O)c1cccc(S(=O)(=O)Nc2ccc(SC(F)F)cc2)c1)c1ccccc1 (stereo not drawn) | inconclusive [inhibitor, single point] | 
COc1ccc(-c2cn(CCCOCc3ccccc3)nn2)cc1 | inconclusive [inhibitor, single point] | 
CC1(C(=O)Nc2cccc(OC(F)(F)F)c2)Cc2c(-c3ccc4c(c3)OCO4)ccnc2O1 (stereo not drawn) | inconclusive [inhibitor, single point] | 
C/C(Nc1ccc(Cl)cc1)=C1/CCOC1=O |  | inactive: -0.64%
Cc1ccc(N(Cc2cc(=O)[nH]c3ccccc23)C(=O)C(C)C)c(C)c1 |  | inconclusive: -7.28% [inhibitor]
O=C(O)c1c2c(nc3ccccc13)CCCCC2 |  | inactive: 10.6%
Nn1c(SCc2cccc(Oc3ccccc3)c2)nnc1C(F)(F)F | inconclusive [inhibitor, single point] | 
O=C(Nc1ccccc1)C1=C[C@H](c2csc3ccccc23)C[C@H](OCCCCO)O1 | inconclusive [inhibitor, single point] | 
CCOC(=O)C1=C(c2ccccc2)OC(N)=C(C#N)C1c1ccc(Cl)s1 (stereo not drawn) | inconclusive [inhibitor, single point] | 
COc1ccc2c(c1)c(=O)oc1cc(O)ccc12 | inconclusive [inhibitor, partial curve, poor fit] | 
O=C1C2C3C=CC([C@@H]2C(=O)N1Cc1cccnc1)C31CC1 (stereo partly drawn) |  | inactive: -1.86%
CCOC(=O)c1c(NC(=O)c2cccnc2)sc(C(C)=O)c1C | inconclusive [inhibitor, single point] | 
COc1ccc(NC(=O)CSc2nc3n[nH]c(C)c3c(=N)n2-c2ccc(Cl)c(C)c2)cc1OC | inconclusive [inhibitor, partial curve] | 
C=CCN1C(=O)CSc2ccc(C(=O)NC3CCCCC3)cc21 | inconclusive [inhibitor, single point] | 
COc1cc(C(C(=O)NC(C)(C)C)N(C(=O)CNC(=O)c2cccs2)c2cccnc2)cc(OC)c1OC (stereo not drawn) |  | inactive: 3.12%
CC1(C(=O)NS(=O)(=O)c2ccc(Cl)cc2)CCN1C(=O)C1(c2ccccc2)CCCC1 (stereo not drawn) | inconclusive [inhibitor, partial curve] | 

SMILES | Potency | activity change, negative = growth inhibition
CCn1c(SCC(=O)NC2CCCCC2)nnc1-c1cccs1 |  | inactive: -15.8%
C=CCN1C(=O)/C(=C\C(C)=C\c2ccccc2)SC1=S | inconclusive [inhibitor, single point] | 
CCn1c(SCC(=O)N2CCCC2)nnc1-c1ccco1 |  | inactive: -17.7%
COc1cccc(NC(=O)Nc2nnc(CC(=O)Nc3ccccc3)s2)c1 | inconclusive [inhibitor, partial curve] | 
COc1ccc(-c2csc(NC(=O)CC(C)C)n2)cc1 | inconclusive [inhibitor, partial curve] | 
COc1ccc(CCNC(=O)c2ccc(COc3ccccc3OC)o2)cc1 | active: 11.6 µM | 
COc1ccc(-c2cn3nc(N4CCCC(C(=O)Nc5ccc(Cl)cc5C)C4)sc3n2)cc1 (stereo not drawn) |  | inactive: -16.9%
COCCOC(=O)C1=C(C)NC(SCC(=O)NC(C)(C)C)=C(C#N)C1c1ccco1 (stereo not drawn) | active: 23.1 µM | 
Cc1ccc(S(=O)(=O)N2CCN(C(=O)Cn3nc(C(=O)O)c4ccccc4c3=O)CC2)cc1 |  | inactive: -22.3%
CCCC(CNC(C)=O)(C1=CCCCC1)c1ccccc1 (stereo not drawn) | active: 13 µM | 
CCCNc1nc(-c2ccccc2)c(C(=O)OCC)cc1C#N | active: 2.91 µM | 
Oc1cccc(-c2csc(C(O)(c3ccccc3)C(F)(F)F)n2)c1 (stereo not drawn) | inconclusive [inhibitor, single point] | 
COc1cc(CNc2ccccc2Oc2cc(=O)n(C)c(=O)n2C)cc(OC)c1OC | inconclusive [inhibitor, single point] | 
COc1ccc(C(=O)N(C)c2ccccc2C(=O)NCCc2ccccc2)cc1 | active: 2.91 µM | 
COc1cc(Cl)c(C)cc1NC(=O)CN1CCCCCC1 |  | inconclusive: -35.6% [inhibitor]
COc1cc(NC(=O)C(NC(=O)C2CCC(C)CC2)C(C)C)cc(OC)c1OC (stereo not drawn) | inconclusive [inhibitor, partial curve] | 
Cc1ccc(/C=N/NC(=O)c2nnn(-c3nonc3N)c2C)o1 |  | inactive: 25.9%
C(=C\c1ccccc1)/C=N/N1CCN(Cc2ccccc2)CC1 | inconclusive [inhibitor, single point] | 
COCCn1c(CNC(=O)c2cc([N+](=O)[O-])ccc2Cl)nc2cccnc21 |  | inactive: -14.8%
CCc1ccc(C(=O)CN2C(=O)NC3(CCOc4ccccc43)C2=O)s1 (stereo not drawn) | inconclusive [inhibitor, single point] | 
CCCCN(C)CCNC(=O)c1cc2c(-c3ccccc3F)nn(C)c2s1 | inconclusive [inhibitor, single point] | 
Cc1cc(NC(=O)CSc2nnc(-c3ccc(Cl)s3)o2)no1 | active: 16.4 µM | 
Cc1ccc(CNC(=O)c2c[nH]c3ccc(S(=O)(=O)Nc4ccc(C(C)C)cc4)cc3c2=O)cc1 | inconclusive [inhibitor, single point] | 
COc1ccc(/C=N/NC(=O)C2(O)c3ccccc3-c3ccccc32)cc1 |  | inactive: 7.66%
CN1CCC(N(C)S(=O)(=O)c2ccc(NC(=O)COc3ccc(Br)cc3Cl)cc2)CC1 | active: 16.4 µM | 

SMILES | Potency | activity change, negative = growth inhibition
CC1Cn2c(nnc2-c2cccs2)S1 (stereo not drawn) |  | inactive: -6.14%
O=[N+]([O-])c1cccc(S(=O)(=O)Nc2ccc(S(=O)(=O)N3CCCC3)cc2)c1 |  | inactive: -20%
CCc1cc(C(=O)N2CCCC(C(=O)c3ccc(C(F)(F)F)cc3)C2)n(C)n1 (stereo not drawn) | inconclusive [inhibitor, single point] | 
CCn1c(SCC(=O)NCC2CCCO2)nnc1-c1ccc(S(=O)(=O)N2CCN(C)CC2)cc1 (stereo not drawn) |  | inactive: -3.9%
O[C@@H]1CN(Cc2cccs2)[C@@H](c2ccccc2)C[C@H]1n1cc(-c2ccc(F)cc2)nn1 | inconclusive [inhibitor, single point] | 
COC(=O)c1cc(OC)ccc1-c1ccc(OC)cc1 |  | inconclusive: -35.5% [inhibitor]
CCOc1ccc(-c2nc(C#N)c(NCc3ccc4c(c3)OCO4)o2)cc1 | active: 14.6 µM | 
Cc1ccc(-c2nc3cc(N)ccc3o2)cc1 |  | inactive: -1.63%
O=C(c1ccco1)N1CCN(c2nc(C3CC3)nc3c2nnn3Cc2ccccc2Cl)CC1 | inconclusive [inhibitor, single point] | 
Cc1oc(-c2ccccc2Cl)nc1CN1CCCCC1c1cccnc1 (stereo not drawn) |  | inactive: -27.4%
O=C(CCNS(=O)(=O)c1cccc2nonc12)NCCc1ccc(Cl)cc1 | inconclusive [inhibitor, partial curve] | 
NNC(=O)Cn1c2ccccc2c2ccccc21 | inconclusive [inhibitor, single point] | 
O=C(NCc1cccc(C(F)(F)F)c1)c1cccc(Cl)c1Cl | inconclusive [inhibitor, single point] | 
CCCCCN(C(=O)NC(=O)Nc1ccc(C)cc1)S(=O)(=O)c1ccccc1 | inconclusive [inhibitor, single point] | 
O=C1CS/C(=N\N=C\c2ccco2)N1c1ccccc1 | inconclusive [inhibitor, single point] | 
CN(C)S(=O)(=O)c1ccc(NC(=O)C2CC(=O)N(Cc3ccccc3)C2)cc1 (stereo not drawn) |  | inactive: -7.55%
CN1CCN(c2ncc3nc(-c4cccs4)c(=O)n(C[C@H]4CCCO4)c3n2)CC1 | active: 5.17 µM | 
O=C(c1cc(COc2ccc(F)cc2Cl)on1)N1CCCCCCC1 | inconclusive [inhibitor, single point] | 
Cc1ccc(NC2CCCN(C(=O)CCc3ccncc3)C2)cc1C (stereo not drawn) |  | inactive: -9.6%
COc1ccc(N(C(=O)COc2ccccc2OC)S(=O)(=O)c2ccc(C)cc2)cc1 |  | inactive: -25.1%
COc1ccc(C2=CC(c3ccc(N(C)C)cc3)n3nnnc3N2)cc1 (stereo not drawn) | inconclusive [inhibitor, single point] | 
CC(=O)OCC(=O)C1(O)CCC2C3CCC4=CC(=O)CCC4(C)C3(Cl)C(O)CC21C (stereo not drawn) | inconclusive [inhibitor, partial curve, poor fit] | 
Clc1ccc(OCCCNCc2ccccc2)c2ccccc12 | inconclusive [inhibitor, single point] | 
